According to PubChem BioAssay AID256 (DTP/NCI, 2004):
Where “and” joins values, the source holds several entries; their conditions need not be identical. Identical values can stand only once. Further values from the same series stand in other lists. Inconclusive results and toxic doses are left out.

Tested on: CD2F1 mice, L1210 leukemia ip, survival T/C
Experiment: NCI In Vivo Anticancer Drug Screen. Data for tumor model L1210 Leukemia (intraperitoneal) in CD2F1 (CDF1) mice
Details: higher = longer survival
Outline: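 Antitumor effect is scored in animals hosting a serially transplanted tumor. Values compare compound-dosed animals against vehicle-only controls as a simple quotient.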

CN(Cc1cnc2nc(N)nc(N)c2n1)c1ccc(C(=O)N[C@@H](CCC(=O)O)C(=O)O)cc1
T/C (endpoint: mean survival time, dose: 0.06 mg/kg/injection, schedule: Q01DX009 (ip), vehicle: sodium bicarbonate): 101 % of control and 107 % of control
T/C (endpoint: mean survival time, dose: 0.13 mg/kg/injection, schedule: Q01DX009 (ip), vehicle: sodium bicarbonate): 105 % of control and 110 % of control
T/C (endpoint: mean survival time, dose: 0.18 mg/kg/injection, schedule: Q01DX009 (ip), vehicle: sodium bicarbonate): 104 % of control and 108 % of control
T/C (endpoint: mean survival time, dose: 0.19 mg/kg/injection, schedule: Q01DX009 (ip), vehicle: other): 109 % of control
T/C (endpoint: mean survival time, dose: 0.5 mg/kg/injection, schedule: Q01DX005 (ip), vehicle: sodium bicarbonate): 109 % of control
T/C (endpoint: mean survival time, dose: 0.75 mg/kg/injection, schedule: Q01DX015 (ip), vehicle: sodium bicarbonate): 197 % of control
T/C (endpoint: mean survival time, dose: 1.0 mg/kg/injection, schedule: Q02DX005 (ip), vehicle: sodium bicarbonate): 190 % of control
T/C (endpoint: mean survival time, dose: 1.0 mg/kg/injection, schedule: Q03HX024 (ip), vehicle: saline): 109 % of control
T/C (endpoint: mean survival time, dose: 1.2 mg/kg/injection, schedule: Q04DX003 (ip), vehicle: saline): 112 % of control
T/C (endpoint: mean survival time, dose: 1.25 mg/kg/injection, schedule: Q04DX003 (ip), vehicle: sodium bicarbonate): 96 % of control
T/C (endpoint: mean survival time, dose: 1.5 mg/kg/injection, schedule: Q01DX009 (ip), vehicle: alkali diluted with saline): 184 % of control
T/C (endpoint: mean survival time, dose: 2.0 mg/kg/injection, schedule: Q01DX009 (ip), vehicle: saline): 108 % of control
T/C (endpoint: mean survival time, dose: 2.0 mg/kg/injection, schedule: Q03HX008 (ip), vehicle: saline): 95 % of control
T/C (endpoint: mean survival time, dose: 3.0 mg/kg/injection, schedule: Q01DX009 (ip), vehicle: alkali diluted with saline): 88 % of control
T/C (endpoint: mean survival time, dose: 3.0 mg/kg/injection, schedule: Q01DX009 (ip), vehicle: other): 95 % of control
T/C (endpoint: mean survival time, dose: 3.0 mg/kg/injection, schedule: Q02DX005 (ip), vehicle: sodium bicarbonate): 105 % of control
T/C (endpoint: mean survival time, dose: 3.6 mg/kg/injection, schedule: Q01DX009 (ip), vehicle: sodium bicarbonate): 106 % of control
T/C (endpoint: mean survival time, dose: 4.0 mg/kg/injection, schedule: Q01DX005 (ip), vehicle: sodium bicarbonate): 95 % of control
T/C (endpoint: mean survival time, dose: 4.0 mg/kg/injection, schedule: Q01DX009 (ip), vehicle: saline): 86 % of control
T/C (endpoint: mean survival time, dose: 5.0 mg/kg/injection, schedule: Q01DX009 (ip), vehicle: sodium bicarbonate): 112 % of control
T/C (endpoint: mean survival time, dose: 6.1 mg/kg/injection, schedule: Q01DX009 (ip), vehicle: saline): 100 % of control
T/C (endpoint: mean survival time, dose: 8.0 mg/kg/injection, schedule: Q01DX001 (ip), vehicle: saline): 100 % of control
T/C (endpoint: mean survival time, dose: 8.0 mg/kg/injection, schedule: Q04DX003 (ip), vehicle: sodium bicarbonate): 195 % of control
T/C (endpoint: mean survival time, dose: 10.0 mg/kg/injection, schedule: Q01DX005 (ip), vehicle: sodium bicarbonate): 93 % of control
T/C (endpoint: mean survival time, dose: 10.0 mg/kg/injection, schedule: Q04DX004 (ip), vehicle: sodium bicarbonate): 194 % of control
T/C (endpoint: mean survival time, dose: 12.0 mg/kg/injection, schedule: Q01DX009 (ip), vehicle: sodium bicarbonate): 105 % of control
T/C (endpoint: mean survival time, dose: 12.2 mg/kg/injection, schedule: Q01DX009 (ip), vehicle: saline): 90 % of control
T/C (endpoint: mean survival time, dose: 15.0 mg/kg/injection, schedule: Q04DX004 (ip), vehicle: sodium bicarbonate): 206 % of control
T/C (endpoint: mean survival time, dose: 18.4 mg/kg/injection, schedule: Q04DX003 (ip), vehicle: saline): 185 % of control
T/C (endpoint: mean survival time, dose: 20.0 mg/kg/injection, schedule: Q04DX004 (ip), vehicle: sodium bicarbonate): 184 % of control and 208 % of control and 237 % of control
T/C (endpoint: mean survival time, dose: 25.0 mg/kg/injection, schedule: Q04DX004 (ip), vehicle: sodium bicarbonate): 194 % of control and 198 % of control
T/C (endpoint: mean survival time, dose: 30.0 mg/kg/injection, schedule: Q04DX003 (ip), vehicle: sodium bicarbonate): 191 % of control
T/C (endpoint: mean survival time, dose: 40.0 mg/kg/injection, schedule: Q01DX005 (ip), vehicle: sodium bicarbonate): 86 % of control
T/C (endpoint: mean survival time, dose: 60.0 mg/kg/injection, schedule: Q04DX003 (ip), vehicle: sodium bicarbonate): 90 % of control and 107 % of control
T/C (endpoint: mean survival time, dose: 80.0 mg/kg/injection, schedule: Q04DX003 (ip), vehicle: sodium bicarbonate): 106 % of control
T/C (endpoint: median survival time, dose: 0.15 mg/kg/injection, schedule: Q06HX024 (ip), vehicle: saline): 101 % of control
T/C (endpoint: median survival time, dose: 0.19 mg/kg/injection, schedule: Q01DX009 (ip), vehicle: sodium bicarbonate): 110 % of control
T/C (endpoint: median survival time, dose: 0.3 mg/kg/injection, schedule: Q06HX024 (ip), vehicle: saline): 108 % of control
T/C (endpoint: median survival time, dose: 1.0 mg/kg/injection, schedule: Q01DX009 (ip), vehicle: saline): 204 % of control
T/C (endpoint: median survival time, dose: 1.44 mg/kg/injection, schedule: Q01DX009 (ip), vehicle: sodium bicarbonate): 191 % of control
T/C (endpoint: median survival time, dose: 2.0 mg/kg/injection, schedule: Q01DX009 (ip), vehicle: saline): 243 % of control
T/C (endpoint: median survival time, dose: 2.4 mg/kg/injection, schedule: Q01DX009 (ip), vehicle: sodium bicarbonate): 198 % of control
T/C (endpoint: median survival time, dose: 2.5 mg/kg/injection, schedule: Q01DX009 (ip), vehicle: sodium bicarbonate): 186 % of control
T/C (endpoint: median survival time, dose: 3.0 mg/kg/injection, schedule: Q01DX009 (ip), vehicle: sodium bicarbonate): 185 % of control and 215 % of control
T/C (endpoint: median survival time, dose: 3.5 mg/kg/injection, schedule: Q01DX009 (ip), vehicle: sodium bicarbonate): 210 % of control
T/C (endpoint: median survival time, dose: 6.25 mg/kg/injection, schedule: Q01DX001 (ip), vehicle: sodium bicarbonate): 106 % of control
T/C (endpoint: median survival time, dose: 9.0 mg/kg/injection, schedule: Q04DX003 (ip), vehicle: sodium bicarbonate): 185 % of control
T/C (endpoint: median survival time, dose: 15.0 mg/kg/injection, schedule: Q04DX003 (ip), vehicle: sodium bicarbonate): 192 % of control
T/C (endpoint: median survival time, dose: 43.0 mg/kg/injection, schedule: Q01DX001 (ip), vehicle: sodium bicarbonate): 112 % of control
